# Assay results taken from paper PMC6919601, “Identification of Plasmodium dipeptidyl aminopeptidase allosteric inhibitors by high throughput screening” (PLoS ONE, 2019).
# Several values for one entry are separate records, joined by “and”; a condition that tells them apart may be missing. Equal values may be shown once. In all, about 110,000 compounds went through this assay and about 230 (0.21%) showed an effect of 50% or more. This is one part of the list.
# Molecular target: DPAP1 (Plasmodium falciparum, UniProt Q8IIJ9)
# Assay: primary screen, percent inhibition; read by cleavage of a fluorogenic dipeptide substrate; higher = more effect of the substance
# Set-up: species or system P. falciparum D10 trophozoite lysates; single well
# 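Also: 30 min substrate incubation versus DMSO and 10 µM JCP410 controls.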
# Chain of DPAP1 (Q8IIJ9 whole entry, looked up): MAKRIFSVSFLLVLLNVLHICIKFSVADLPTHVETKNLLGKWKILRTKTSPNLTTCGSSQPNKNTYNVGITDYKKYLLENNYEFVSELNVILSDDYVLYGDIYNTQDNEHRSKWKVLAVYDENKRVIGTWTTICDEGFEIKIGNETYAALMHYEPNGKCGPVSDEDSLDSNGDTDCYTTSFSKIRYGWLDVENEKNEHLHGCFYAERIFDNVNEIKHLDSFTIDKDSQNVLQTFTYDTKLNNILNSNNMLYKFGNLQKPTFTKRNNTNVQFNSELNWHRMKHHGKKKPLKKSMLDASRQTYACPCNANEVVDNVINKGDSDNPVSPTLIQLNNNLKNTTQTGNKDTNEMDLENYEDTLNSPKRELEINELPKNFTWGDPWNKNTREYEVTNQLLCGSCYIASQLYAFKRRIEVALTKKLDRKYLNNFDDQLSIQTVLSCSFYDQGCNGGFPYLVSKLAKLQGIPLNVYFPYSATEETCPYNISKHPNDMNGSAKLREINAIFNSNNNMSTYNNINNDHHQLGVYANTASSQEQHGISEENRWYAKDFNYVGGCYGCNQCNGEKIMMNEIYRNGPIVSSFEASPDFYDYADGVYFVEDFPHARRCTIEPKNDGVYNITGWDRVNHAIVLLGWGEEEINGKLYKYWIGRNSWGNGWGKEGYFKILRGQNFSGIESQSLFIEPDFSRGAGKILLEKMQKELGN
row,Structure (SMILES),% Inhibition @ 10 uM
1,CN1CCN(S(=O)(=O)c2ccc3ncc(C(=O)O)c(O)c3c2)CC1,-0.657%
2,Cc1noc2ncnc(NCCc3ccsc3)c12,-2.71%
3,Cc1ccc(S(=O)(=O)N=C(N)N)cc1,3.96%
4,Cc1ccccc1CNC(=O)C(C)SCc1ccccc1 (stereo not drawn),1.35%
5,CCOC(=O)C(C(=O)Nc1cccc2ccccc12)C1CCCCC1 (stereo not drawn),2.51%
6,Oc1nnc(C(F)(F)F)c2nnn(Cc3ccccc3Cl)c12,0.401%
7,O=[N+]([O-])c1ccc(OCCCN2CCCCC2)cc1,-7.28%
8,Cc1cc(C)c2c(=O)n(CC(=O)NCCC3=CCCCC3)sc2n1,-10.5%
9,CCc1cc(CC(NC(=O)c2ccc(N3CCOCC3)cc2)C(=O)NCC#N)cc(I)c1O (stereo not drawn),0.173%
10,CCCC(=O)OCCNC(=O)c1cc2ccccc2oc1=O,2.62%
11,CC(=O)c1cc2c(cc1NC(=O)c1ccc(C)c(C)c1)OCO2,5.92%
12,COc1ccccc1CNC(=O)C(C)n1nc(C)c2c(C)n(-c3ccc(C)cc3)nc2c1=O (stereo not drawn),-8.17%
13,COc1cc(NC(=O)c2ccc(Cl)cc2)c(Cl)cc1NC(=O)c1cccs1,5.84%
14,CCOC(=O)c1sc2nc(C3CC3)cc(-c3ccc(OC)cc3)c2c1N,-2.2%
15,CCOc1ccccc1C(=O)N(Cc1ccc(CC)cc1)Cc1ccco1,2.29%
16,Cc1ccc(N2C(=O)NC(c3ccc(F)cc3)(C(F)(F)F)C2=O)nc1 (stereo not drawn),0.895%
17,N#CC1=C(N)Oc2ncnc(O)c2C1c1ccncc1 (stereo not drawn),1.76%
18,NC(=O)CSc1nnc(CSc2ncccn2)n1CCc1ccccc1,1.66%
19,CC1=NOC(=O)/C1=C\c1ccc(-c2ccccc2Br)o1,3.12%
20,CC1CC(Nc2ccccc2)c2ccccc2N1C(=O)c1ccc(Cl)cc1 (stereo not drawn),4.26%
21,CCOc1ccc(C(=O)Nc2nc(-c3ccccc3)cs2)cc1Cl,18.2%
22,O=S1(=O)CCC=C1S(=O)(=O)c1ccccc1,1.21%
23,O=C(Nc1ccccc1C(=O)O)c1ccc2c(c1)C(=O)N(Cc1ccco1)C2=O,11.5%
24,COc1ccccc1C(=O)/N=C(\N)Nc1nc2ccccc2o1,-3.02%
25,Nc1cc2cc3c(cc2oc1=O)OCCO3,-2.77%
26,Cn1cc(S(=O)(=O)N2CCCC2)cc1C(=O)NCc1ccccc1Cl,1.39%

row,Structure (SMILES),% Inhibition @ 10 uM
1,O=C(Cc1ccc([N+](=O)[O-])cc1)NCCO,4.08%
2,CCn1cc(C=C2C(=O)OC(C)(C(C)(C)C)OC2=O)c2ccccc21 (stereo not drawn),3.16%
3,CN(C)/C=C1\CC(=O)N(Cc2ccccc2)C1=O,1.42%
4,O=C(NCCc1ccccc1)C(=O)Nc1ccc(Cl)cc1,-0.414%
5,CCOC(=O)CN(C(=O)c1ccccc1)c1ccccc1C,4.57%
6,COCC(=O)n1nc(-c2ccc(Cl)cc2)nc1NCc1ccc(F)cc1,-2.91%
7,COC(=O)c1ccc2[nH]c3c(c2c1)CN(C)CC3,1.72%
8,Cc1ccc(C(=O)Nc2ccc(CC#N)cc2)cc1,1.57%
9,O=S(=O)(O)CCC[n+]1c(/C=C/c2ccc3c(c2)OCO3)sc2ccccc21,2.25%
10,OC1=C2C(=Nc3ccccc3NC2c2ccco2)CC(c2ccccc2)C1 (stereo not drawn),-2.78%
11,Fc1ccc(CN2CCN(c3ccccn3)CC2)cc1Br,3.1%
12,COc1ccccc1N1C(=O)CC(N(CCC23CC4CC(CC(C4)C2)C3)C(C)=O)C1=O (stereo not drawn),0.231%
13,O=C(Cn1nc(-c2ccccc2)ccc1=O)NCCc1ccc(Cl)cc1,-2.99%
14,COc1cc(CN2CCN(Cc3cccc(F)c3)CC2)cc(OC)c1OC,-10.6%
15,O=C1NC(=O)C(O)(c2c[nH]c3ccccc23)C(=O)N1,-0.186%
16,CCCCCCOc1ccc(N2C(=O)CC(N3CCN(C)CC3)C2=O)cc1 (stereo not drawn),2.44%
17,Cc1ccc2nc3c(O)n(CCCN(C)C4CCCCC4)cnc-3c2c1,4.8%
18,O=C(NCc1ccc2c(c1)OCO2)c1cccc2c1C(=O)N(C1CCCCC1)C2,-4.69%
19,CCCCCCNC(=O)C1C2C=CC(O2)C1C(=O)O (stereo not drawn),-2.54%
20,COc1ccc(C(CC(=O)O)NC(=O)C(C)C)cc1 (stereo not drawn),17.5%
21,COc1cccc(C=C2C(=O)c3ccccc3C2=O)c1OC,-6.11%
22,O=C(CC1COC(=O)C(=O)N1Cc1ccccc1)NCc1ccccc1 (stereo not drawn),-1.68%
23,O=C(Cc1ccccc1)Nc1ccccc1C(=O)NC12CC3CC(CC(C3)C1)C2,-2.03%
24,O=C(O)CCC(=O)Nc1ccc(N2CCN(c3cccc(Cl)c3)CC2)cc1,-0.318%
25,CCc1ccccc1OCCOCCN1CCN(C)CC1,-0.0619%
26,CC(C)=CCN1CCN(C/C=C/c2ccccc2)CC1,-3.27%

row,Structure (SMILES),% Inhibition @ 10 uM
1,NCCc1c[nH]c2c(Cl)ccc(Cl)c12,-1.98%
2,COc1ccc2nc(NC(=O)c3cc4c(s3)-c3ccccc3OC4)sc2c1,-6.68%
3,O=C(c1cc(-c2ccccc2)[nH]n1)N1CCC2(CC1)OCCO2,3.75%
4,Cc1nc2cc(-c3ccccc3)nn2c(C)c1CC(=O)NCc1cccc(Cl)c1,-2.45%
5,CCc1ccc(CN2CCN(C(=O)c3ccc(OC)cc3)CC2)cc1,-1.24%
6,c1ccc(-c2noc(-c3ccccn3)n2)cc1,1.94%
7,COc1c(Cl)cc(Cl)cc1C(=O)NC1CCCCC1,-2.18%
8,COc1cccc(S(=O)(=O)NCc2ccc(C(=O)NCc3ccco3)cc2)c1,-4.63%
9,CC(NC(=S)NC(=O)/C=C/c1ccco1)C12CC3CC(CC(C3)C1)C2 (stereo not drawn),-3.16%
10,Cc1oc(-c2ccc3c(c2)OCCO3)cc1C(=O)NCC(=O)O,-1.69%
11,O=c1c(OCc2ccccc2)c(-c2ccco2)oc2ccc(Cl)cc12,-1.65%
12,COc1ccc(-c2nc(CS(=O)(=O)CC(=O)NCCc3ccc(Cl)cc3)c(C)o2)cc1,-1.89%
13,CN1CCC(NC(c2ccccc2)c2ccccc2)CC1,-1.82%
14,COC(=O)CCC(=O)Nc1c(C)cc(C)cc1C,-3.58%
15,COC(=O)c1sccc1NC(=O)Cn1ncc2c(=O)oc3ccc(C)cc3c21,4.55%
16,N#CCNC(=O)[C@H](CC1CCCCC1)NC(=O)Cc1ccc(OCc2ccccc2)cc1,-6.98%
17,O=P(CCO)(c1ccccc1)c1ccccc1,-1.59%
18,CCN(CC)c1ccc(NC(=O)c2c(-c3ccccc3)noc2C)cc1,-3.24%
19,CNC(=O)/C(=C\c1ccc(-c2ccc(Br)cc2)o1)NC(=O)c1ccccc1,-4.75%
20,Cc1nc(O)nc(O)c1C1N2CC3(C)CN1CC(C)(C2)C3=O (stereo not drawn),2.05%
21,CCn1cc(/C=C(\NC(=O)c2ccccc2OC)C(=O)NCCCO)c2ccccc21,-1.74%
22,CC1(C)CC2(CCO1)OC(=O)CC2C(=O)NCCc1ccccc1 (stereo not drawn),3.59%
23,Cn1c(=O)c2c(nc3n2CC(c2ccccc2)=NN3)n(C)c1=O,1.13%
24,CCc1nc2c(cnn2-c2ccccc2)c(=O)n1-c1ccc(C)cc1,-10.9%
25,O=c1[nH]c(=O)n([C@H]2C[C@H](O)[C@@H](CO)O2)cc1Br,-1.52%
26,Cc1ccc(CS(=O)(=O)Cc2ccc(C(=O)N3CCC4(CC3)OCCO4)o2)cc1,-1.21%

row,Structure (SMILES),% Inhibition @ 10 uM
1,COc1cc(OC)c(OC)cc1CN1CCN(Cc2cccc(Br)c2)CC1,-2.3%
2,CC1=C(C(=O)Nc2ccc(Cl)cc2)C(c2ccc(Cl)cc2)NC(S)=N1 (stereo not drawn),3.42%
3,Cc1cc(C)nc(N2N=C(CSc3ccc(Cl)cc3)CC2=O)n1,2.31%
4,COc1ccccc1NC1=C(Cl)C(=O)N(c2ccccc2C)C1=O,-4.6%
5,CCOc1ccccc1C(=O)Nc1nc(-c2ccc(F)cc2F)cs1,-0.132%
6,COc1cc(Cl)c(C)cc1NC(=O)Nc1ccc(Cl)cc1,-9.29%
7,CN(Cc1ccccc1)C(=O)COc1cc(Cl)ccc1Cl,-0.7%
8,COc1ccc(Cn2c(C(=O)O)c(CNCc3ccccc3F)c3ccc(C)cc32)cc1,-5.04%
9,O=C(C1=C(O)C(=O)N(c2ccccc2)C1c1ccccc1)c1cccs1 (stereo not drawn),-6.92%
10,COc1ccc(NC(=O)C2CCCN2S(=O)(=O)c2ccc(Cl)cc2)cc1 (stereo not drawn),4.09%
11,Cc1cccc(CNC(=O)CCC(=O)N2Cc3ccccc3Oc3ncccc32)c1,-5.28%
12,CCNC(=O)CCc1nc(-c2ccccc2Cl)no1,-1.35%
13,CCC[C@H](NC(=O)C1(NC(=O)c2ccc(OC(F)(F)F)cc2)CCCCC1)C(=O)c1nnc(-c2cccc(C(F)(F)F)c2)o1,-10.1%
14,O=C1CCCC(O)=C1C(C1=C(O)CCCC1=O)c1ccc2c(c1)OCO2,0.708%
15,N=C1/C(=C\c2cccc3ccccc23)C(=O)N=C2SC(N3CCCC3)=NN12,-1.66%
16,CCn1cc(CNC(=O)Nc2cccc(C)c2)c(C)n1,-2.74% and 1.4%
17,COc1ccc(CCNC(=O)Cn2cnc3onc(-c4ccc(Cl)cc4)c3c2=O)cc1OC,8.12%
18,O=C1CSc2ccc(C(=O)O)cc2N1,0.392%
19,CCOCCCNC(=O)c1nnc(Cc2cc(OC)c(OC)c(OC)c2)o1,2.5%
20,C=CCOC(=O)C1=C(C)NC(=O)NC1c1cccc(Cl)c1 (stereo not drawn),5.01%
21,CC1=C(C(=O)N2CCOCC2)C(c2ccccc2F)C2=C(O)CC(C)(C)CC2=N1 (stereo not drawn),3.45%
22,O=C1/C(=C/c2ccccc2F)SC(=S)N1C1CCS(=O)(=O)C1 (stereo not drawn),0.135%
23,O=S(=O)(NC1CCc2ccccc21)c1ccc(-n2cnnn2)cc1 (stereo not drawn),-1.07%
24,O=C1CCCN1CCCNc1ncnc2c1cnn2-c1ccc(Cl)cc1,1.09%
